Results reported in the supplement of paper PMC10369915.
Some of the results follow. No stated cut-off is given here; in the data, active = 3.2 or more and inactive = the rest. The signal is at background level for most entries.

Columns and labels:
Test in all cases: enrichment score (SH2-bound / input frequency) (ratio); bacterial display of known human phosphotyrosine sites (pTyr-Var adds point mutants) read by sequencing; higher = stronger binding; tyrosines were phosphorylated by kinases first
Details in all cases: peptide library: pTyr-Var
SHP2 C-SH2 domain E139D = molecular target: SHP2 C-SH2 domain E139D
[1] = molecular target: SHP2 C-SH2 domain wild-type
SHP2 N-SH2 domain L43F = molecular target: SHP2 N-SH2 domain L43F
SHP2 N-SH2 domain T42A = molecular target: SHP2 N-SH2 domain T42A
SHP2 N-SH2 domain T52S = molecular target: SHP2 N-SH2 domain T52S
[2] = molecular target: SHP2 N-SH2 domain wild-type

Measured: enrichment score
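Further: displayed peptides selected on beads carrying the immobilized SH2 domain, with library peptides lacking any tyrosine serving as negative controls.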

KASVDYIRKLQ [MITF_Y360]
inactive: SHP2 C-SH2 domain E139D 0.688 | [1] 0.621 | SHP2 N-SH2 domain L43F 0.652 | SHP2 N-SH2 domain T42A 0.51 | SHP2 N-SH2 domain T52S 0.672 | [2] 0.692

PFWKLYESVKK [MKI67_Y241]
inactive: SHP2 C-SH2 domain E139D 1.72 | [1] 1.39 | SHP2 N-SH2 domain L43F 1.6 | SHP2 N-SH2 domain T42A 1.51 | SHP2 N-SH2 domain T52S 1.53 | [2] 1.83

EVVGRYSVHNA [MLH1_Y183]
inactive: SHP2 C-SH2 domain E139D 0.738 | [1] 0.743 | SHP2 N-SH2 domain L43F 0.808 | SHP2 N-SH2 domain T42A 0.713 | SHP2 N-SH2 domain T52S 0.711 | [2] 0.893

EVVGRYSVHYA [MLH1_Y183_N187Y]
inactive: SHP2 C-SH2 domain E139D 0.877 | [1] 1 | SHP2 N-SH2 domain L43F 0.962 | SHP2 N-SH2 domain T42A 0.898 | SHP2 N-SH2 domain T52S 1.01 | [2] 0.838

EVVGRYSLHNA [MLH1_Y183_V185L]
inactive: SHP2 C-SH2 domain E139D 0.665 | [1] 0.573 | SHP2 N-SH2 domain L43F 0.686 | SHP2 N-SH2 domain T42A 0.558 | SHP2 N-SH2 domain T52S 0.619 | [2] 0.713

THPFLYLSLEI [MLH1_Y293]
inactive: SHP2 C-SH2 domain E139D 1.92 | [1] 2.54 | SHP2 N-SH2 domain L43F 2.19 | SHP2 N-SH2 domain T42A 1.78 | SHP2 N-SH2 domain T52S 1.79 | [2] 2.96

THPFPYLSLEI [MLH1_Y293_L292P]
active: SHP2 N-SH2 domain L43F 3.23 | SHP2 N-SH2 domain T42A 8.62 | SHP2 N-SH2 domain T52S 3.99
inactive: SHP2 C-SH2 domain E139D 1.55 | [1] 1.15 | [2] 1.43

GDPVQYNRTTD [MLPH_Y454]
inactive: SHP2 C-SH2 domain E139D 0.502 | [1] 0.576 | SHP2 N-SH2 domain L43F 0.501 | SHP2 N-SH2 domain T42A 0.485 | SHP2 N-SH2 domain T52S 0.563 | [2] 0.833

RDMNAYIRPSP [MMAA_Y207]
inactive: SHP2 C-SH2 domain E139D 0.82 | [1] 0.987 | SHP2 N-SH2 domain L43F 0.907 | SHP2 N-SH2 domain T42A 0.721 | SHP2 N-SH2 domain T52S 0.755 | [2] 1.02

RDMNAYISPSP [MMAA_Y207_R209S]
inactive: SHP2 C-SH2 domain E139D 0.608 | [1] 0.675 | SHP2 N-SH2 domain L43F 0.546 | SHP2 N-SH2 domain T42A 0.552 | SHP2 N-SH2 domain T52S 0.568 | [2] 0.548

KLNNEHLELNY [MME_Y497_Y497H]
inactive: SHP2 C-SH2 domain E139D 0.776 | [1] 0.694 | SHP2 N-SH2 domain L43F 0.747 | SHP2 N-SH2 domain T42A 0.655 | SHP2 N-SH2 domain T52S 0.643 | [2] 0.855

HLELNYKEDEY [MME_Y502_Y497H]
inactive: SHP2 C-SH2 domain E139D 0.836 | [1] 0.841 | SHP2 N-SH2 domain L43F 0.639 | SHP2 N-SH2 domain T42A 0.662 | SHP2 N-SH2 domain T52S 0.81 | [2] 0.854

FLELNYKEDEF [MME_Y502_YF]
inactive: SHP2 C-SH2 domain E139D 0.983 | [1] 1.2 | SHP2 N-SH2 domain L43F 1.22 | SHP2 N-SH2 domain T42A 0.853 | SHP2 N-SH2 domain T52S 0.951 | [2] 0.909

QVMDGYPIPIG [MMP14_Y353_M355I]
inactive: SHP2 C-SH2 domain E139D 0.764 | [1] 0.721 | SHP2 N-SH2 domain L43F 0.765 | SHP2 N-SH2 domain T42A 0.72 | SHP2 N-SH2 domain T52S 0.798 | [2] 0.823

KERNQYGGVMV [MMP21_Y347_E349G]
inactive: SHP2 C-SH2 domain E139D 0.707 | [1] 0.611 | SHP2 N-SH2 domain L43F 0.602 | SHP2 N-SH2 domain T42A 0.544 | SHP2 N-SH2 domain T52S 0.567 | [2] 0.619

HLWRIYYDITD [MMP27_Y307]
inactive: SHP2 C-SH2 domain E139D 1.68 | [1] 1.87 | SHP2 N-SH2 domain L43F 1.73 | SHP2 N-SH2 domain T42A 1.66 | SHP2 N-SH2 domain T52S 1.83 | [2] 2.03

HLWRIYFDITD [MMP27_Y307_YF]
inactive: SHP2 C-SH2 domain E139D 1.3 | [1] 1.74 | SHP2 N-SH2 domain L43F 1.23 | SHP2 N-SH2 domain T42A 1.28 | SHP2 N-SH2 domain T52S 1.61 | [2] 1.92

KYLENYYDLEK [MMP3_Y41_K45E]
inactive: SHP2 C-SH2 domain E139D 1.4 | [1] 1.2 | SHP2 N-SH2 domain L43F 1.6 | SHP2 N-SH2 domain T42A 0.953 | SHP2 N-SH2 domain T52S 1.05 | [2] 1.51
